Tested on: Escherichia coli, CA 8000
Assay: Enhancement of adsorption of λ phage on bacteria
Conditions: niaziridin 1µg/ml; MOI=10
Method: Overnight grown bacterial culture (Escherichia coli, CA 8000) was divided into 5 ml of aliquot each in screw cap tubes. One of the tube with the bacterial culture was treated with niaziridin to a final concentration of 1µg/ml. Both the control and the treated tubes were incubated at 37°C for 4 hours. The cultures were then infected with λ phage (MOI=10) for 10minutes at 37°C (for adsorption) followed by centrifugation at 10000 RPM for 10 minutes at 4°C.
The supernatant and the pellets for both treated and untreated cultures were then compared for the phage titer by plating on top agar containing sensitive bacteria at different dilutions. The phage titer in the supernatant of the treated culture was reduced by 2.6 folds indicating increase in adsorption to the bacterial cells harvested in the pellet. Table-7: Effect of plant compound, niaziridin on λ phage adsorption on E.coli cells.

niaziridin
reduction of phage titer in the supernatant of the treated culture: 2.6 folds

— patent publication EP1611148B1, “NOVEL NITRILE GLYCOSIDE USEFUL AS A BIO-ENHANCER OF DRUGS AND NUTRIENTS, PROCESS OF ITS ISOLATION FROM MORINGA OLEIFERA” (Council of Scientific and Industrial Research, priority 2003, dated 2004)
